From PubChem BioAssay AID485294 (National Center for Advancing Translational Sciences (NCATS), 2010)
About 150 (0.041%) of roughly 370,000 compounds were called active. The shares of active, inactive and inconclusive entries below differ from those in the screen. Calls follow the shape of the dose curve; as a rule, active = well fitted inhibition curve with a large enough effect; inconclusive = small, poorly fitted or top-dose-only effect; inactive = flat fitted curve, though single readings scatter. No potency is given beside an inconclusive call; the fits are too rough.

Molecular target: Beta-lactamase (Escherichia coli (strain K12)) (UniProt P00811)
Chain of UniProt P00811 (P00811 whole entry, looked up): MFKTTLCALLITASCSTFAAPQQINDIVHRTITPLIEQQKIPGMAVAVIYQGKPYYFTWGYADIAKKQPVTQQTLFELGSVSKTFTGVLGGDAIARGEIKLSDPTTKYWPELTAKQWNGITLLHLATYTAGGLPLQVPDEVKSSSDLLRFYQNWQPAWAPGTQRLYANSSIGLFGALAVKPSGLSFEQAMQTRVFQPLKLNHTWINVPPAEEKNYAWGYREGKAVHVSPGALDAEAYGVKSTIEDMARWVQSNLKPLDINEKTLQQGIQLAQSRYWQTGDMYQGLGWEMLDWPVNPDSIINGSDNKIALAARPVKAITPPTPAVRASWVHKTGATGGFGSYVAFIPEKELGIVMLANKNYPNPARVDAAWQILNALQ
Assay: qHTS Inhibitors of AmpC Beta-Lactamase (assay with detergent); also: nearly all actives have a fitted effect of over 25% in size;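 as to activity change, negative = inhibition: 0% = no-compound wells and -100% = no-enzyme wells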
Conditions: AmpC hydrolysis of nitrocefin, absorbance 480 nm, 0.01% Triton; activity change, negative = inhibition: at 114 µM (top of the series)
How it was run: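 AmpC (5.3 nM in the dispensed reagent) in 20 mM phosphate pH 7.0 with 0.01% (detergent screen) or 0.0001% Triton X-100 was preincubated with compounds for 15 min at room temperature. Nitrocefin was then added from an 800 uM solution, and hydrolysis was followed at 480 nm.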
Potency is read from the fitted curve at half-maximal effect; tags tell the direction and shape of the fitted curve.

| SMILES | Potency | activity change, negative = inhibition |
| --- | --- | --- |
| COc1ccc(-c2cc(=O)oc3c(C)c(OC(C)C(=O)N4C[C@H]5C[C@@H](C4)c4cccc(=O)n4C5)ccc23)cc1 (stereo not given in full) | inconclusive [inhibitor, full curve, poor fit] | – |
| Nn1c(SCC(=O)NC(=O)NCc2ccco2)nnc1-c1ccc(OC(F)F)cc1 | inconclusive [inhibitor, full curve, poor fit] | – |
| COC(=O)c1cc(CN2CCN(c3ccccc3)CC2)ccc1O | inconclusive [inhibitor, partial curve, poor fit] | – |
| COc1cccc(-c2cn3ncsc3n2)c1 | – | inactive: 20.5% |
| Oc1ccccc1CNc1nc2ccccc2n1CCN1CCCCC1 | inconclusive [inhibitor, full curve] | – |
| N#Cc1c(N)sc2c1CCCCCC2 | inconclusive [inhibitor, full curve] | – |
| CC1(C)CC(=O)C(C(=S)Nc2ccc(F)cc2)=C(NCCN2CCOCC2)C1 | inconclusive [inhibitor, partial curve, poor fit] | – |
| Fc1ccc2c(c1)C(c1ccncc1)=NNC(c1ccc(Cl)cc1)=N2 | – | inactive: -2.22% |
| CCC(Cc1ccccc1)NC(=O)c1cc(S(=O)(=O)N2CCCCC2)c[nH]1 (stereo not given) | – | inactive: -17.8% |
| Cc1cccc2cc(C#N)c(SCc3nnc(-c4ccccc4[N+](=O)[O-])o3)nc12 | – | inactive: -7.68% |
| COc1cc(C(=O)N2CCN(C/C=C/c3ccccc3)CC2)cc(OC)c1OC | inconclusive [inhibitor, partial curve, poor fit] | – |
| Cc1ccccc1NC(=O)c1cc(=O)c2ccccc2o1 | – | inactive: 4.54% |
| CCOC(=O)c1nn(-c2ccccc2)c(=O)c2c(N)sc(C)c12 | inconclusive [inhibitor, full curve] | – |
| Nc1c2ccccc2nc2ccccc12 | inactive | – |
| Cc1cccc(-n2ncc3c(NC(C)C)ncnc32)c1 | inconclusive [inhibitor, full curve, poor fit] | – |
| Cc1ccc(CNC(=O)c2nccnc2C(=O)O)cc1 | – | inactive: -1.23% |
| COc1ccccc1S(=O)(=O)Cc1ccc(C(=O)NCCN2CCCCCC2)o1 | inconclusive [inhibitor, full curve] | – |
| C=CCC1(C(=O)NCCO)CCN(C(=O)OC(C)(C)C)CC1 | inconclusive [inhibitor, partial curve, poor fit] | – |
| CCCCc1ccc(NC(=S)NN2CCOCC2)cc1 | inconclusive [inhibitor, single point] | – |
| CCOc1ccccc1NS(=O)(=O)c1ccc2[nH]c(=O)[nH]c2c1 | inconclusive [inhibitor, full curve, poor fit] | – |
| O=C(c1ccncc1)N1CCN(S(=O)(=O)c2cccc([N+](=O)[O-])c2)CC1 | inconclusive [inhibitor, full curve] | – |
| CCCCNC(=S)N(C)/N=C/c1ccc(F)cc1 | inconclusive [inhibitor, full curve] | – |

| SMILES | Potency | activity change, negative = inhibition |
| --- | --- | --- |
| COCCn1c(=NC(=O)C2COc3ccccc3O2)sc2cc(S(N)(=O)=O)ccc21 (stereo not given) | inconclusive [inhibitor, full curve, poor fit] | – |
| Cc1cc(C)n(-c2ccc(NN=C(C#N)C#N)cc2)n1 | – | inactive: -9.01% |
| Cc1ccc(C)c(NS(=O)(=O)c2ccc(OCC(=O)NCc3ccco3)cc2)c1 | inconclusive [inhibitor, full curve] | – |
| O=C(C1COc2ccccc2O1)N1CCN(c2ccccc2F)CC1 (stereo not given) | inconclusive [inhibitor, partial curve, poor fit] | – |
| COc1ccc(/C=N/N=C2\SC(CC(=O)O)C(=O)N2c2ccccc2)cc1 (stereo not given) | – | inactive: 2.83% |
| COc1ccc(CSCC(=O)Nc2ccc(S(=O)(=O)N3CCCCCC3)cc2)cc1 | inconclusive [inhibitor, partial curve] | – |
| CCc1cccc(CC)c1NC(=O)C1SC(=Nc2ccccc2C)C(c2nc3ccccc3s2)=C1N (stereo not given) | – | inactive: -12.7% |
| O=C(O)c1ccc2c(c1)C(=O)N([C@H](Cc1ccccc1)C(=O)O)C2=O | inconclusive [inhibitor, full curve, poor fit] | – |
| Cc1ccc(NC(=O)COc2nsnc2N2CCOCC2)cc1Cl | inconclusive [inhibitor, full curve, poor fit] | – |
| Cc1cc(C)c2c(n1)sc1c(=O)n(-c3ccccc3C(F)(F)F)nnc12 | inconclusive [inhibitor, full curve, poor fit] | – |
| Cc1cc(=O)oc2cc(NC(=O)COc3cccc(C(F)(F)F)c3)ccc12 | inconclusive [inhibitor, partial curve, poor fit] | – |
| COCCOC(=O)c1[nH]c2c(c1C)C(=O)CC(c1ccco1)C2 (stereo not given) | inconclusive [inhibitor, full curve, poor fit] | – |
| COCCN(C(=O)c1cc2c(s1)CCC2)c1c(N)n(CC(C)C)c(=O)[nH]c1=O | inconclusive [inhibitor, full curve, poor fit] | – |
| CC(=O)N1c2ccc(S(=O)(=O)N3CCC(C(=O)Nc4cccc(Cl)c4)CC3)cc2CC1C (stereo not given) | – | inactive: -0.657% |
| Cc1sc(NC(=O)c2ccco2)c(CN2CCN(Cc3ccccc3)CC2)c1C | – | inactive: -9.66% |
| CN(C)c1nc(N/N=C/c2c[nH]c3ccccc23)nc(N2CCOCC2)n1 | – | inactive: 0.228% |
| CCCCCn1c(CCNC(=O)c2cccc(C)c2)nc2ccccc21 | inconclusive [inhibitor, full curve, poor fit] | – |
| O=C(CNC(=O)c1ccc(S(=O)(=O)N2CCCC2)cc1)N/N=C/c1ccc(Cl)cc1Cl | inconclusive [inhibitor, partial curve, poor fit] | – |
| Brc1cccc(-c2nnc(-c3ccccc3)o2)c1 | inconclusive [inhibitor, full curve, poor fit] | – |
| CCN(c1ccccc1)S(=O)(=O)c1ccc(C(=O)N2CCCC(C(F)(F)F)C2)cc1 (stereo not given) | inconclusive [inhibitor, full curve] | – |
| CC1C(=O)C(C)C(c2ccc3c(c2)OCO3)NC1c1ccc2c(c1)OCO2 (stereo not given) | – | inactive: 2.46% |
| Clc1cccc(-c2cc3nc4c(c(N5CCN(c6cnccn6)CC5)n3n2)CCCC4)c1 | – | inactive: -9.75% |

| SMILES | Potency | activity change, negative = inhibition |
| --- | --- | --- |
| COc1ccc(C2SCC(=O)N2c2c(C)n(C)n(-c3ccccc3)c2=O)cc1 (stereo not given) | inconclusive [inhibitor, full curve, poor fit] | – |
| Cc1cc(C)nc(N2CCC(C(=O)NCCc3ccc(F)cc3)CC2)n1 | inconclusive [inhibitor, full curve, poor fit] | – |
| COC(=O)COc1ccc(S(=O)(=O)N2CCN(c3ccccc3F)CC2)cc1 | inconclusive [inhibitor, full curve, poor fit] | – |
| O=C1CC(c2ccccc2)CN1S(=O)(=O)c1ccccc1 (stereo not given) | inconclusive [inhibitor, full curve, poor fit] | – |
| COc1cccc2cc(C(=O)C3=C(O)C(=O)N(CCN(C)C)C3c3ccc(F)cc3)oc12 (stereo not given) | inconclusive [inhibitor, full curve] | – |
| Cc1c(NC(=O)CSc2ncnc3c2cnn3-c2ccccc2)c(=O)n(-c2ccccc2)n1C | inconclusive [inhibitor, full curve, poor fit] | – |
| CCCn1c(NCCO)nc2ccccc21 | inconclusive [inhibitor, full curve, poor fit] | – |
| CC1CN(C(=O)N2CCC(C(=O)NCCCc3ccccc3)CC2)c2ccccc2O1 (stereo not given) | – | inactive: -1.62% |
| CCOc1ccc(S(=O)(=O)N2CCN(c3ccc(OC)cc3)CC2)c2cccnc12 | inconclusive [inhibitor, full curve] | – |
| CCN(CC)S(=O)(=O)c1ccc(N2CCOCC2)c(NCC(=O)Nc2ccc(F)cc2)c1 | – | inactive: -10% |
| NCCCC[C@@H]1NC(=O)[C@H](CCC(=O)O)NC(=O)c2cc([N+](=O)[O-])cc(I)c2OCC[C@@H](C(N)=O)NC1=O | inconclusive [inhibitor, full curve, poor fit] | – |
| Cc1ccccc1N1C(=O)CC(N(O)c2ccccc2)C1=O (stereo not given) | inconclusive [inhibitor, partial curve, poor fit] | – |
| Cc1ccc(OC(=O)CCNC(=O)c2ccccc2Cl)c(Br)c1 | inconclusive [inhibitor, partial curve, poor fit] | – |
| CCCOc1ccc(N)cc1N | inconclusive [inhibitor, full curve, poor fit] | – |
| COc1ccc(CCN(C(=O)C(F)(F)F)C(C(=O)NC2CCCCC2)c2cccs2)cc1 (stereo not given) | inconclusive [inhibitor, full curve, poor fit] | – |
| O=C(CNC(=O)c1ccco1)N/N=C/c1cc(Br)ccc1O | inconclusive [inhibitor, full curve, poor fit] | – |
| Cc1ccc(NC(=O)CNc2ccc(N3CCOCC3)cc2)cc1S(=O)(=O)N(C)C | inconclusive [inhibitor, full curve] | – |
| O=C(c1cccc(Br)c1)N1CCCc2ccccc21 | – | inactive: -12.9% |
| CN(CC(=O)Nc1ccc(Cl)c(C(F)(F)F)c1)C(=O)C1CSC2(C)CCC(=O)N12 (stereo not given) | – | inactive: 0% |
| COc1ccccc1NS(=O)(=O)c1cc(C(=O)NCC(c2ccco2)N2CCCCC2)ccc1C (stereo not given) | inconclusive [inhibitor, partial curve, poor fit] | – |
| COc1ccccc1C(=O)Nc1ccc(C(=O)OCc2cc(=O)n3nc(C)sc3n2)cc1 | inconclusive [inhibitor, full curve, poor fit] | – |
